Data published in PubChem BioAssay AID686978 (National Center for Advancing Translational Sciences (NCATS), 2013).
Several values for one entry are separate records, joined by “and”; a condition that tells them apart may be missing. Equal entries are not always repeated. Hit rate of the full screen: of about 420,000 compounds, about 64,000 (15%) were called active. The inconclusive results got no clear call from the source; some entries with a clear call stand among them for comparison. Calls come from the whole dose curve; as a rule, active = well fitted inhibition curve with a large enough effect; inconclusive = small, poorly fitted or top-dose-only effect; inactive = flat fitted curve, though single readings scatter. Potencies of inconclusive entries are doubtful fits and often do not repeat.

Experiment: qHTS for Inhibitors of human tyrosyl-DNA phosphodiesterase 1 (TDP1): qHTS in cells in absence of CPT; note: nearly all actives have a fitted effect of over 55% in size
Conditions: DT40 Tdp1-/- hTDP1 cells, no CPT, ATP luminescence, 48 h; activity change, negative = growth inhibition: at 46.2 µM (top of the series) unless noted
Summary of the method: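 Growth kinetics read by CellTiter-Glo luminescence after ≥48 hr at 37 °C. Cells: DT40 Tdp1-/- stably carrying human TDP1, 400 per well, compound exposure in the absence of CPT (DMSO vehicle).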
% is set by controls: 0 for no effect and ±100 for the full control effect; potency is the fitted concentration of half-maximal effect; tags give direction and shape of the fitted curve.

Structure (SMILES)	Potency	activity change, negative = growth inhibition
CNC(=O)NC(=O)C(OC(=O)Cc1cccc(C(F)(F)F)c1)c1ccccc1 (centres undefined)	inactive	–
CCC1CCC(C(=O)NC(CCSC)C(=O)NCCc2ccc(S(N)(=O)=O)cc2)CC1 (centres undefined)	inactive	–
Brc1cccc(-c2nc3cccnc3nc2-c2cccc(Br)c2)c1	active: 16.4 µM	–
O=C(NCC(=O)N1CCN(c2ccccc2O)CC1)c1ccc2ccccc2c1	inconclusive: 23.1 µM [inhibitor, single point]	–
Cc1c(Cl)c([N+](=O)[O-])nn1CCCC(=O)NC(C)c1ccccc1 (centres undefined)	inactive	–
CC(=NCC1CCCO1)c1c(O)[nH]c(=O)[nH]c1=O (centres undefined)	inactive	–
CC1CC(NC2=NCCS2)CC(C)(C)C1 (centres undefined)	inconclusive: 16.4 µM [inhibitor, single point]	–
O=C(CCc1nc2sc3c(c2c(=O)[nH]1)CCCC3)NCCc1ccccc1	inconclusive: 20.6 µM [inhibitor, single point]	–
CC(CC(=O)Nc1ccc(Br)cc1F)S(=O)(=O)c1ccc2c(c1)NC(=O)CO2 (centres undefined)	inconclusive: 20.6 µM [inhibitor, partial curve] and inconclusive: 23.1 µM [inhibitor, single point]	–
CCOc1ccc(-c2[nH]ncc2Oc2cccc(OC)c2)c(O)c1	inconclusive: 16.4 µM [inhibitor, partial curve, poor fit]	–
COc1ccc(C2=NS(=O)(=O)N(C)C(C(=O)NCc3ccc4c(c3)OCO4)=C2)cc1	inconclusive: 25.9 µM [inhibitor, single point]	–
COC(=O)c1cccnc1-n1c(=O)c2cccnc2n(Cc2ccc([N+](=O)[O-])cc2)c1=O	inconclusive: 29.1 µM [inhibitor, single point]	–
CC(C)(C)c1ccc(/C=N/N2C(=O)CSC2=S)cc1	inconclusive: 18.4 µM [inhibitor, single point]	–
O=C1C=C(c2cc(C(F)(F)F)cc(C(F)(F)F)c2)C[C@@H](c2ccc(Cl)cc2)C1	inconclusive: 29.1 µM [inhibitor, single point]	–
O=S(=O)(Cc1ccc(Cl)cc1)Nc1ccc2c(c1)OCO2	inconclusive: 23.1 µM [inhibitor, single point]	–
O=C(NNC1OC(CO)C(O)C(O)C1O)c1cccc(Br)c1 (centres undefined)	inactive	–
O=C(Cc1ccc(S(=O)(=O)N2CCOCC2)s1)NCC(=O)Nc1ccccc1Br	inconclusive: 9.2 µM [inhibitor, partial curve]	–
CCCCOc1ccc(CNC(=O)CCCN2C(=O)CSc3c2c(C)nn3-c2ccccc2)cc1	active: 13 µM	–
Cc1c(C)n(C)c2ccc(C(=O)N3CCN(c4ccccc4)CC3)cc12	inconclusive: 29.1 µM [inhibitor, single point]	–
Cc1c(Cl)cccc1NC(=O)C(C)n1nnc2sc3c(c2c1=O)CCCC3 (centres undefined)	inactive	–
Cc1cc(C)c2sc(NNC(=O)c3ccc(S(=O)(=O)N4CCc5ccccc5C4)cc3)nc2c1	active: 2.59 µM	–
Cc1ccc(C(=O)N2CCN(c3cccc(C)c3C)CC2)o1	inconclusive: 18.4 µM [inhibitor, single point]	–
Cc1ccc(NC(=S)N2CCN(c3ncccn3)CC2)c(C)c1	inactive	–

Structure (SMILES)	Potency	activity change, negative = growth inhibition
CC1(c2ccccc2)CC(c2ccccc2)=Nc2ccccc2N1 (centres undefined)	inconclusive: 29.1 µM [inhibitor, single point]	–
Cc1ccc(CNC(=O)Cn2cc(C(=O)c3ccc(F)cc3)c(=O)c3ccc(C)nc32)cc1	inconclusive: 13 µM [inhibitor, partial curve]	–
CCOC(=O)CC(=O)CSc1nc2ccccc2c(=O)n1-c1ccc(C(=O)N2CCOCC2)cc1	inactive	–
CC1CN(C(=O)c2cc3cc(Cl)cc(Cl)c3oc2=O)CC(C)O1 (centres undefined)	inconclusive: 18.4 µM [inhibitor, single point]	–
CCN1CCN(c2cc(=O)n(Cc3ccc(F)cc3)c(=O)[nH]2)CC1	inactive	–
O=C(CCN1CCN(S(=O)(=O)c2ccc(Cl)cc2)CC1)Nc1ccccc1F	inconclusive: 18.4 µM [inhibitor, single point]	–
CC(C)CNC(=O)c1cc(-c2ccco2)on1	active: 17.8 µM	–
O=C(CC(=O)Nc1cccc(Cl)c1)N/N=C\c1ccccc1	active: 0.291 µM	–
Cc1onc(-c2ccccc2Cl)c1C(=O)Nc1ccc(-c2cn3cccnc3n2)cc1	inconclusive: 29.1 µM [inhibitor, single point]	–
COc1ccc2cc(C3=CCCCC3)ncc2c1	inconclusive: 16.4 µM [inhibitor, single point]	–
O=C(Nc1cccc(S(=O)(=O)N2CCCCC2)c1)Nc1ccc(Cl)cc1Cl	inconclusive: 29.1 µM [inhibitor, single point]	–
Cc1ccc(S(=O)(=O)Nc2ccc(N=Nc3ccc(O)cc3)cc2)cc1	inactive	–
CCc1ccc(Cc2cnc(NC(=O)c3ccc4c(c3)CC(c3ccccc3)OC4=O)s2)cc1 (centres undefined)	active: 18.4 µM	–
CCOc1ccccc1OCCOCCOc1c(Cl)cccc1Cl	inconclusive: 25.9 µM [inhibitor, single point]	–
COc1ccc(NC(=O)N2CCC(c3nc(-c4cccs4)no3)CC2)cc1	inconclusive: 14.6 µM [inhibitor, partial curve, poor fit]	–
Cc1ccc(-c2c(C#N)c(N)n(-c3ccc(Cl)cc3)c(=O)c2C#N)cc1	inactive	–
Cc1cccc(OCC(=O)Nc2ccc3c(c2)nc(CCN2CCCCC2)n3C)c1	inactive	–
CCOC(=O)C1CCN(C(=O)C2CCN(C3=NS(=O)(=O)C(c4ccc(C)c(C)c4)=C3C)CC2)CC1	inconclusive: 18.4 µM [inhibitor, single point]	–
COC(=O)c1ccc(OCC(O)CN2C(=O)c3ccccc3S2(=O)=O)cc1 (centres undefined)	inconclusive: 3.66 µM [inhibitor, partial curve, poor fit]	–
COc1cccc(-c2nn(-c3ccc(F)cc3)cc2C(=O)NCC2CCCO2)c1 (centres undefined)	active: 23.1 µM	–
COc1ccc(/C=N\NC(=O)c2cc(O)c(O)c(O)c2)cc1CN1CCN(c2ccc(F)cc2)CC1	inconclusive: 20.6 µM [inhibitor, single point]	–
COc1ccc(C(=O)NC(=S)Nc2cccc3nc(C)ccc23)cc1OC	active: 20.6 µM	–
Cc1cccc(OCC(=O)N2CCN(C(=O)c3ccco3)CC2)c1	inactive	–

Structure (SMILES)	Potency	activity change, negative = growth inhibition
CS(=O)(=O)Nc1ccc2c(c1)OCC(=O)N2Cc1ccccc1	inactive	–
Cc1noc(/C=C/N(C)C)c1S(=O)(=O)N1CCCC(C(=O)Nc2ccc3c(c2)OCO3)C1 (centres undefined)	inconclusive: 29.1 µM [inhibitor, single point]	–
CC(c1ccc(Cl)cc1)n1c(-c2ccc3ccccc3n2)n[nH]c1=S (centres undefined)	inactive	–
C=CCN(C(=O)Cn1ncc2c1-c1cc(C)ccc1OC2)c1ccccc1	inconclusive: 11.6 µM [inhibitor, partial curve]	–
CC(C)CCNC(=O)C1CCC(Cn2c(=O)c3sccc3n(CC(=O)NC(C)C)c2=O)CC1 (centres undefined)	–	inconclusive: -34.6% [inhibitor]
Cc1cc2ncn(C(=O)c3c(-c4c(Cl)cccc4Cl)noc3C)c2cc1C	inconclusive: 29.1 µM [inhibitor, single point]	–
NC(=O)c1ccccc1N=Cc1ccc2ccccc2c1	active: 16.4 µM	–
O=C(c1ccc(-n2c(SCc3cccc(F)c3)nc3ccccc3c2=O)cc1)N1CCOCC1	inconclusive: 29.1 µM [inhibitor, single point]	–
CCn1c(CC(=O)Nc2ccccc2F)nnc1SCC(=O)N1CCOCC1	inactive	–
COCCN=C1Sc2nc3ccc(C)cc3cc2CN1Cc1cccs1	active: 20.6 µM	–
Nc1ccc2ncccc2c1	inactive	–
O=C(/C=C/c1ccc(S(=O)(=O)N2CCOCC2)cc1)Nc1ccc(F)c(F)c1F	inconclusive: 20.6 µM [inhibitor, single point]	–
Cc1cccc(N=Cc2[nH]c3ccc(Br)c(Cl)c3c2O)c1	inconclusive: 20.6 µM [inhibitor, partial curve, poor fit]	–
Cc1ccc(CN2CCN(/N=C/c3cc(Br)ccc3O)CC2)cc1	inconclusive: 16.4 µM [inhibitor, single point]	–
CC1CCc2c(sc3nc(C(C)(C)C)nc(N4CCN(C(=O)CCl)CC4)c23)C1 (centres undefined)	active: 2.59 µM	–
O=C(c1ccc2c(c1)N(Cc1ccc(Cl)cc1)C(=O)c1ccccc1S2(=O)=O)N1CCCCC1	inconclusive: 20.6 µM [inhibitor, partial curve, poor fit]	–
COc1ccc2sc(N(CCCN(C)C)C(=O)c3ccc(S(=O)(=O)N(C)C4CCCCC4)cc3)nc2c1	inconclusive: 29.1 µM [inhibitor, single point]	–
Cc1ccc2[nH]c(CCN(C)C)c(CN3CCOCC3)c2c1	inconclusive: 20.6 µM [inhibitor, single point]	–
COC(=O)c1ccccc1S(=O)(=O)N(CCCO)Cc1cc2c(C)ccc(C)c2[nH]c1=O	inconclusive: 14.6 µM [inhibitor, partial curve]	–
O=C(Nc1ccccc1N1CCCC1)C1CCN(S(=O)(=O)c2ccccc2C(F)(F)F)CC1	inconclusive: 29.1 µM [inhibitor, single point]	–
CCC(C)(C)C1CCc2[nH]nc(C(=O)NCCNC(=O)OC(C)(C)C)c2C1 (centres undefined)	inconclusive: 23.1 µM [inhibitor, single point]	–
CCOC(=O)c1c(NC(C)=O)c2c3c(sc2n1Cc1nc(-c2ccccc2C)oc1C)CCCC3	inactive	–
CCOC(=O)C1CCN(C(=O)c2cc(CN3C(=O)c4ccccc4C3=O)ccc2OCC)CC1	inconclusive: 14.6 µM [inhibitor, partial curve]	–
